To fix the notation:
B1: LINE1-mini (parent)
chain: GGCAGAGCUCAACACAGCGUGGCAAAGUGGCUGUGGCUAGACUGCC

Read counts are not given, so values of variants with three or more changes are uncertain.

In the data set the parent is B1. Briefly: self-cleavage, relative activity (ratio to wild type); higher = more cleavage; in vitro, sequencing; the parent is a self-cleaving ribozyme.
As to C3A A12G C31U C37U U43A, the self-cleavage was 0.17. Under C3A G22C A25U stands 0.35; under C3A G5C C23U G36U, 0.15. The value for C3A G5C C23G C42G was 0.02; that for C3A C8U C15A A41U was 0.44. Under C3A G19U G22C A26U stands 0.16.

On to C3A A12G A16U, for which the self-cleavage was 0.02. The value for C3A C15A C18A G36U was 0.15; that for C3A G17U A25G C31G was 0.13.

On to C3A G7U A26U G27A, for which the self-cleavage came out at 0.23.

Regarding C3A G5C G33C G35A U38G, the self-cleavage was 0.21. Regarding C3A G5C G36A, the self-cleavage was 0.2. Under C3A A6G C23A G36U stands 0.05; under C3A A12G A26G U34C C37U A39C C46U, 0.09. Under C3A C8U G40A stands 0.51.

C3A U9A G17U C42G: the self-cleavage came to 0.14. Take C3A G7U G30A G36U: the self-cleavage was determined as 0.66. As for C3A G5C A6G G30U G40U U43G, the self-cleavage was determined as 0.37. Under C3A C15G C23G G27A stands 0.01; under C3A A26U G44C, 0.14; under C3A G27C G33C G40C, 0.14.

Take C3A A16U G36U U38G C42A: the self-cleavage worked out at 0.11.

Turning to C3A U38A C46U, the self-cleavage is 0.11. The value for C3A C10U G22U was 0.07; that for C3A G27C G30U was 0.35. Under C3A A4G A12U G19A U34G stands 0.09; under C3A U9G G22U A41G, 0.21; under C3G A4C G19C C23A C42A, 0.34. Under C3A A4G G7U C42A stands 0.16; under C3A C8G A16C G29A, 0.05; under C3A C18G C42G, 0.09. On to C3A G5U C31A, for which the self-cleavage stood at 0.11. The value for C3A G22A G40A was 1.42. The value for C3A C18U G36U was 1.45; that for C3A G33U C42U was 0.25. The value for C3A A6C C10A G36A was 0.05. As for C3A G5A A11U U43C, the self-cleavage stood at 0.05. On to C3A C15U G21C A24U U32A C46G, for which the self-cleavage was found to be 0.1. Take C3A G7A A25C: the self-cleavage was found to be 0.07. The value for C3A G27U G35U C45A was 0.08; that for C3A U28G G29U G36C G40C G44A was 0.04; that for C3A G5C G7C G30C was 0.2. In the case of C3A A6C G19U A26G G27C G29C A41C, the self-cleavage turned out to be 0.1. Under C3G A4U A39G stands 0.04; under C3A U28C G29A U34A G40U, 0.21; under C3A C8A U20A, 0.4. Under C3A U28A G35U G36U stands 0.22; under C3A G7A C23A, 0.25. The value for C3A G19U A26G G33U was 0.05; that for C3A C15U C45A was 0.25; that for C3G A4G C13U C37G C42G was 0.01. On to C3A C13A U20C C37G C45G, for which the self-cleavage was found to be 0.1. With C3A A4U G27C U32A, the self-cleavage was 0.03. Under C3A G7U U9A C13G U32G stands 0.08. Under C3A C23G C31G stands 0.05. Under C3A U20G G35U stands 0.24. Regarding C3A G17U A24C, the self-cleavage was 0.08. The value for C3A G19U G27C U34G C42G was 0.07.

Regarding C3A G7A G22C, the self-cleavage came to 0.27.

For the variant C3A G7A C10G G21U C23U G44A C45A, the self-cleavage was found to be 0. Under C3A U32A A41G stands 0.1; under C3A A39C A41G, 0.6; under C3A U9A A14C G21U G30U C46A, 0.05. As for C3A C10A G30U G44U, the self-cleavage was found to be 1.18.

Consider C3A A4U A6U G29U, for which the self-cleavage is 0.05. Under C3A A4C G35A stands 0.06; under C3A G5U U9A C18U, 0.03; under C3A A6G U9A A26G, 0.09. Under C3A G5A C23U C45A stands 0.78. For the variant C3A A16G G27U U32G, the self-cleavage came out at 0.05. The value for C3A A6G A16U G19U was 0.04; that for C3A A4U C42U was 0.11. Regarding C3A A12G C46G, the self-cleavage was found to be 0.11. Under C3A C8U A16U C31G C42A stands 0.25. Regarding C3A A6U U28A C31U, the self-cleavage was determined as 0.08. On to C3A C13A U34C, for which the self-cleavage was found to be 0.25.

Take C3A G19U G21A G27U: the self-cleavage worked out at 0.16. The value for C3A G17U A26C was 0.2; that for C3A C10U G17U G30C was 0.1. Under C3A C8A A11C stands 0.02; under C3A G5U G36C C45A, 0.12; under C3A G22C C31U G35A, 0.09. Under C3A C10A C13A U20G C45G stands 0.04; under C3A G21U C45G, 0.68.

In the case of C3A C10A C18G U20G C45A, the self-cleavage was found to be 0. Under C3A G27C C31A stands 0.25; under C3A G7A C13A G35U, 0.84; under C3A G17C G30U C45A, 0.27.

Take C3A G5U U9C A16U: the self-cleavage was 0.06. The value for C3A C15A A16U C23G A24G G35C was 0.06; that for C3A G33U U43C C45A was 0.29; that for C3A C8A U9A G40C was 0.41. The value for C3A A39C C46U was 0.08; that for C3A G19U U20C was 0.15; that for C3A G22C C45U was 1.01. Under C3A A11C C13U U20G stands 0.03; under C3A C23G G36C C42U, 0.79.

On to C3A U20A A26G U34C G35C, for which the self-cleavage was determined as 0.14.

For C3A U9C C23G U28G U32A U34G, the self-cleavage amounted to 0.02. The value for C3A A11C U20A G22U A24U was 0.04. The value for C3A C10A A16G G21C U28G was 0.01. As to C3A C13G C15G U38A C46U, the self-cleavage is 0.08.

Regarding C3A C13A G27C C37U C42G, the self-cleavage is 0.73. With C3A C13A A26C G40A, the self-cleavage stood at 0.18. The value for C3A G7U G29A C46U was 0.17. As for C3A G33C G36C, the self-cleavage came to 0.06. Take C3A A12U C37A: the self-cleavage is 0.07. The value for C3A U9G C13G G40U G44U was 0.12; that for C3A G27A U38A U43C was 0.06; that for C3A A6U C10G C15A G19A U43C was 0.03. On to C3A U9G A16C A26C G27U, for which the self-cleavage was determined as 0.14.

Turning to C3A C15G A39C, the self-cleavage is 0.05. The value for C3A A4U A14G was 0.14; that for C3A C31A A41U was 0.14; that for C3A G21U G22A U28A was 0.11.

As for C3A A12U G21U, the self-cleavage came out at 0.19.

As to C3A G21U C45A C46G, the self-cleavage worked out at 0.18. The value for C3A A16U G17A was 0.1.

Regarding C3A C15G A16U, the self-cleavage was found to be 0.43. Under C3A A11G U28A stands 0.02; under C3A A16U C23U G40C, 0.08; under C3A A4C G7C, 0.11.

On to C3A A12U C31A C46U, for which the self-cleavage was 0.01.

As for C3G A4C A16U G29C, the self-cleavage was 0.09.

As to C3A A6U C18G G30U A41C, the self-cleavage came out at 0.03. Consider C3A G17A G33A C46A, for which the self-cleavage was found to be 0.16. With C3A C8U C10U G19U C46U, the self-cleavage came out at 0.11.

In the case of C3A U9G A25U U34C U38A A41G, the self-cleavage came to 0.07. The value for C3A G19C U32C was 0.1; that for C3A G7C G40U was 0.07; that for C3A C13A C31U was 0.23. C3G A4C A6G C15A A41G: the self-cleavage turned out to be 0.05. Under C3A C18G G29C G33C G40U stands 0.11; under C3A C10G G35A, 0.04.

On to C3A C18G G30A, for which the self-cleavage was 0.08. The value for C3A A6C G7U A16G U28A G33U U38G G40C G44C was 0.01; that for C3A A24C A25U G33C was 0.1; that for C3A C15A G17C was 0.05.

Turning to C3A A4U A6G G22A, the self-cleavage came to 0.1.

With C3A C18A G19U A41G G44C, the self-cleavage came to 0.04. The value for C3A C13A A39G was 1.38; that for C3A U20G C45G was 0.15; that for C3A G35C G40A was 0.21. Under C3A A4U A11C G27U stands 0.04; under C3A A14G G27A C45G, 0.46; under C3A C8G A24G G40A, 0.04.

As for C3A C13G U38A, the self-cleavage is 0.47. Under C3A G7C U9A G21U C42U stands 0.1; under C3A C15A A26U, 0.01; under C3A U28A G44A, 0.47.

Turning to C3A A26U C42A, the self-cleavage amounted to 0.08. Turning to C3A U43G G44C, the self-cleavage was found to be 0.05. The value for C3A A26C G27C U28G C37A U43A was 0.07; that for C3A U28A A41G was 0.04. Under C3G A4C A39C stands 0.07; under C3A C13A U20C A24C G27A, 0.01.

As for C3A U20A A26C U32G A39C G40A, the self-cleavage was found to be 0.04. The value for C3A G5U C37G was 0.12; that for C3A G7A C8A G22A was 1.48. Under C3A C15U G21U G30C stands 0.17; under C3A G19C C23U G33A A39C C42A, 0.08; under C3A A25U U38G C42A, 0.12. The value for C3A G7C C8A G30U G33C G44C C45G was 0.28.

C3A G7A C18G U34C C37A: the self-cleavage was found to be 0.08. Under C3A C10U A24G A39U stands 0.48. In the case of C3A A14U U43C, the self-cleavage was found to be 0.43. Under C3A A6G C8A stands 1.14.

The values are drawn from the RNAGym collection of RNA variant scans (doi:10.7554/elife.90254).
